# Some of the results follow.
# Target: T1, OsWOX13 (Oryza sativa, UniProt Q5QMM3 1-267)
# T1 sequence: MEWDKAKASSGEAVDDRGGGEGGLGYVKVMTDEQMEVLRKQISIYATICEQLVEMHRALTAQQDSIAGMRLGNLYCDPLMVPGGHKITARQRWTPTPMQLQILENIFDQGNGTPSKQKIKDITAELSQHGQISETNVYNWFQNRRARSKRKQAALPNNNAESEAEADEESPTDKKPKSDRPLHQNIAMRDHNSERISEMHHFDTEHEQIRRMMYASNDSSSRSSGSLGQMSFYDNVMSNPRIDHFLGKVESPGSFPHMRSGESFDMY
# Experiment: protein-binding microarray (RPBM); PBS, 2% BSA, 51.3 ng/ul salmon testes DNA, 50 uM zinc acetate, 200 nM TF, 25 C, 1 h; high values mean tight binding
# Settings: protein: recombinant; tags: N-terminal polyhistidine and DsRed monomer fusion (pET32a); label: CyDye5-dUTP incorporated in the synthesized complementary strand; 3' TTTTT single-stranded linker to array surface; dsDNA, one strand shown
# In short: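 The binding signal is fluorescence intensity per array feature (arbitrary units). Readings came from an Axon 4000B scanner after a washed, 2% BSA-blocked, double-stranded custom Agilent array had been incubated for 1 h at 25 °C with 200 nM protein and 50 µM zinc acetate. The protein was a Ni–NTA-purified transcription factor fused N-terminally to polyhistidine and DsRed, expressed in E. coli BL21-CodonPlus.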
row,Sequence,binding signal
1,TTAATTAAATAATTAGCTAATCTCTCTTACACACAAAACGCGGAGTCACCTAGTGCAG,34500 fluorescence intensity (a.u.)
2,GATGTATGATTGGTCTTTGTGTGATGTAAGTTGGCAATAACGGAGTCACCTAGTGCAG,24800 fluorescence intensity (a.u.)
3,CGGTGATGAATGTCGTGTGAGATTGATATGATCGGGAGGGCGGAGTCACCTAGTGCAG,14700 fluorescence intensity (a.u.)
4,GTCCTAAATTGCTACAACCACTTCAGAATTCTGCATGGTGCGGAGTCACCTAGTGCAG,12600 fluorescence intensity (a.u.)
5,CTGAAATTAAATTTAGAAGTTATAGCTCTACCAAACAGGCCGGAGTCACCTAGTGCAG,28400 fluorescence intensity (a.u.)
6,TTGCAATTGCCAATTTCTTTATTATATTGTTGGTTTAACTCGGAGTCACCTAGTGCAG,16700 fluorescence intensity (a.u.)
7,CATCATCAATCTATCAATTACTATTTCGCATACTATTATACGGAGTCACCTAGTGCAG,18200 fluorescence intensity (a.u.)
8,AAATCAAATTAATTTTATTAAATGTAACAATGAATATATTCGGAGTCACCTAGTGCAG,19700 fluorescence intensity (a.u.)
9,GTAAATCAATAAAATCATTGGAACCACGAAACAAGGTCAACGGAGTCACCTAGTGCAG,6080 fluorescence intensity (a.u.)
10,TGAATATAAAATTTGCAATCACTTGATAACATTTGTATCACGGAGTCACCTAGTGCAG,7760 fluorescence intensity (a.u.)
11,GGAGGGAGTAATAGTCAGTGATTGGCTGGGTGGATAGAATCGGAGTCACCTAGTGCAG,17700 fluorescence intensity (a.u.)
12,ACCCAATCAAATCCTAAGTTGCATTAATCCAACCGCAATTCGGAGTCACCTAGTGCAG,9080 fluorescence intensity (a.u.)
13,TTACTATATAATTAGCACGTATAAATAGCCATCGCACATGCGGAGTCACCTAGTGCAG,11600 fluorescence intensity (a.u.)
14,TTGATAATTTTGGTTATAAATCTCTTGTTGTATGATACATCGGAGTCACCTAGTGCAG,9520 fluorescence intensity (a.u.)
15,CCGTTTGATTGTTTGTCTGGCGTTAATTTTCGCGAACTGCCGGAGTCACCTAGTGCAG,45900 fluorescence intensity (a.u.)
16,TTAAATCATTGATCAATATGTAGATACACAATCGGCACGACGGAGTCACCTAGTGCAG,16500 fluorescence intensity (a.u.)
17,ATTTTAATTTTGAATTTCAGTTACTTCTAAATTGAATTCCCGGAGTCACCTAGTGCAG,18300 fluorescence intensity (a.u.)
18,GCTAATTTGTCAAAATTTTAACATTGCTAAAATTTGATATCGGAGTCACCTAGTGCAG,38600 fluorescence intensity (a.u.)
19,CCGTTACATTGTTCCAATTTTAATTAAACTTCCAATTTTACGGAGTCACCTAGTGCAG,6400 fluorescence intensity (a.u.)
20,TTCAAAATTGACGTTGTTGTTTGGCCGTGTTTCCATTACACGGAGTCACCTAGTGCAG,15900 fluorescence intensity (a.u.)
21,GTTGATGGGCAGCTTAATTACGGCCCGCCTGTTTAGCCAACGGAGTCACCTAGTGCAG,17500 fluorescence intensity (a.u.)

row,Sequence,binding signal
1,TAACTTTGATAGACACAATATAATACAAATACACTGACAACGGAGTCACCTAGTGCAG,16500 fluorescence intensity (a.u.)
2,AAGCTCTTCTTTCAATTAACATATTTCAGAAGGACTTATCCGGAGTCACCTAGTGCAG,3920 fluorescence intensity (a.u.)
3,TCCGATCGGCTTGATTGAACGGCAGGATGATAAGGGTGGACGGAGTCACCTAGTGCAG,35900 fluorescence intensity (a.u.)
4,CCAATCAATTATAACCCTTCTTCGTTCACTAATTCCAATACGGAGTCACCTAGTGCAG,16000 fluorescence intensity (a.u.)
5,ATGTAATTTGGTTCACTATATGATAAAAGGGATCGATGGACGGAGTCACCTAGTGCAG,5670 fluorescence intensity (a.u.)
6,CAGGCCTAATTAATTAAGCTGAGCTCCACTGTCTCCACTCCGGAGTCACCTAGTGCAG,34000 fluorescence intensity (a.u.)
7,TTGCCTTAATCATAGCACTAATCGCAGTTCTCGACAATAGCGGAGTCACCTAGTGCAG,3220 fluorescence intensity (a.u.)
8,GTAATAGACATATTTTGGTTGATCTATCGTATCAATGGATCGGAGTCACCTAGTGCAG,15300 fluorescence intensity (a.u.)
9,CGTGCCATAATTGCATAATTTAAACTATTGCATACGTGACCGGAGTCACCTAGTGCAG,24700 fluorescence intensity (a.u.)
10,TGTAAGTTAATTAATGTATGTAGATGTAAATTGCTTGGTTCGGAGTCACCTAGTGCAG,28000 fluorescence intensity (a.u.)
11,TCACTAAAATCCCTCAAAATTGATTTTGAGATGAAATAGGCGGAGTCACCTAGTGCAG,6900 fluorescence intensity (a.u.)
12,CGGCTTAATTAGTCTCAAAAGATTCGTCTCACGGTTTCCACGGAGTCACCTAGTGCAG,30500 fluorescence intensity (a.u.)
13,GGCACGGCGAACCTCAGCCATCACCTTGTGCATGGCCGTCCGGAGTCACCTAGTGCAG,5780 fluorescence intensity (a.u.)
14,TCATAATAAATTAAGAAAATTGCTAAAAGCCTTGTCGCAACGGAGTCACCTAGTGCAG,18300 fluorescence intensity (a.u.)
15,TTTAATTAATAATGTAATAATTATCAAGTTAATCTGATTACGGAGTCACCTAGTGCAG,29700 fluorescence intensity (a.u.)
16,CTCTTGTCACTTAATTAATCACAGGAACCGCGGCTAAACACGGAGTCACCTAGTGCAG,14500 fluorescence intensity (a.u.)
17,GTCTAATCTTATTATAACTAAGTTTAAATTAGTTGTGGCACGGAGTCACCTAGTGCAG,11200 fluorescence intensity (a.u.)
18,AAAATCATTTGCATAAACTTTTATCTAGCACGAATGGTTACGGAGTCACCTAGTGCAG,4260 fluorescence intensity (a.u.)
19,AAAGTAATTGCAATACCTACATGTTCATAGGTGGTTGCATCGGAGTCACCTAGTGCAG,20800 fluorescence intensity (a.u.)
20,ATGCGTGTATTAATTAGTGTCACTCGAGCTAGTCGTCTCGCGGAGTCACCTAGTGCAG,4530 fluorescence intensity (a.u.)
21,ATAATTGACATCGTTAATTTTAGAGACACATTTAACTATTCGGAGTCACCTAGTGCAG,42500 fluorescence intensity (a.u.)
